# Measured values taken from the BET-seq Pho4 binding data (Le et al. 2018).
# Some of the results follow. Values were computed here from the reads of four pooled replicates and scatter widely.
# Biological target: T1, Pho4 (S. cerevisiae) (UniProt P07270)
# T1 sequence: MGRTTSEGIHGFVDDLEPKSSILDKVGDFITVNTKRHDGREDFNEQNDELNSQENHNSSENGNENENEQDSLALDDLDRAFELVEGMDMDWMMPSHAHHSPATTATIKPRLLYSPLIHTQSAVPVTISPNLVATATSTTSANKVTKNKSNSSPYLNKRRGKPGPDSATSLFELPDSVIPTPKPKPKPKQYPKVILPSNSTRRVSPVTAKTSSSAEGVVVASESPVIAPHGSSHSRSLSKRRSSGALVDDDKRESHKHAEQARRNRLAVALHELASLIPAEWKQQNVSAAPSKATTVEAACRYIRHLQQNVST
# Experiment: relative binding free energy (BET-seq); higher = weaker binding
# Settings: reference: library average
row,Sequence,relative binding free energy
1,GTTTTCACGTGCTTGG,0.795 kJ/mol
2,CTGGACACGTGCGGGG,-0.335 kJ/mol
3,TGTTCCACGTGCATGG,-0.126 kJ/mol
4,GAATACACGTGAAGGG,1.97 kJ/mol
5,TACTGCACGTGATTTG,0.502 kJ/mol
6,GTTGACACGTGAGCTG,0.711 kJ/mol
7,GTACTCACGTGGGGAG,0.544 kJ/mol
8,TTTAACACGTGAGGGA,1.34 kJ/mol
9,TCGTGCACGTGCGGGC,-0.293 kJ/mol
10,TTATTCACGTGGTGTG,1.17 kJ/mol
11,GTGCTCACGTGGTGAT,0.879 kJ/mol
12,TATGGCACGTGGTGCT,-1.46 kJ/mol
13,TGTGCCACGTGAGTTT,0.335 kJ/mol
14,TTAAACACGTGTTAGA,0.0418 kJ/mol
15,TCTAGCACGTGGGGAA,-1 kJ/mol
16,TGTAGCACGTGGTTTA,-0.92 kJ/mol
17,TGCGTCACGTGGCTTT,0.335 kJ/mol
18,TTGTGCACGTGCGGGG,0 kJ/mol
19,TTGAGCACGTGACGGT,0.418 kJ/mol
20,AGAAGCACGTGTTGGG,-0.0837 kJ/mol
21,ATCTTCACGTGTATAG,0.92 kJ/mol
22,GTTGTCACGTGGCAAT,0.502 kJ/mol
23,TTTAGCACGTGGCTAT,-0.628 kJ/mol
24,TATTTCACGTGGTAGG,0.628 kJ/mol
25,TGTGTCACGTGAGTAC,0.962 kJ/mol

row,Sequence,relative binding free energy
1,GTGTTCACGTGACAAT,2.13 kJ/mol
2,AGCTGCACGTGGAATA,1.26 kJ/mol
3,CTTATCACGTGGGAAG,0.335 kJ/mol
4,TTTACCACGTGAGGGG,0.879 kJ/mol
5,ATTGTCACGTGGAAAG,0.335 kJ/mol
6,GGTGACACGTGGCTGA,0.167 kJ/mol
7,TCTGGCACGTGGGCTG,-1.26 kJ/mol
8,TTGTTCACGTGCAGAT,0.377 kJ/mol
9,CATGGCACGTGTATTT,-0.711 kJ/mol
10,GAGTCCACGTGATGGT,1.21 kJ/mol
11,AGTTTCACGTGATACT,1.34 kJ/mol
12,AGGTACACGTGTGGCA,0.335 kJ/mol
13,TTGCTCACGTGGTTGG,1.13 kJ/mol
14,CGTGTCACGTGCGTGG,-0.418 kJ/mol
15,GTATGCACGTGAATTG,0.586 kJ/mol
16,GAGATCACGTGATAGG,1.63 kJ/mol
17,GGTGACACGTGAGATT,1.17 kJ/mol
18,ATCGGCACGTGAGTTG,1 kJ/mol
19,CGGATCACGTGTGTGC,0.795 kJ/mol
20,AAGTGCACGTGGTACG,-0.962 kJ/mol
21,GTTTGCACGTGTTTGC,0.167 kJ/mol
22,CGTTTCACGTGAGGTA,1 kJ/mol
23,ATATGCACGTGAGATT,1.09 kJ/mol
24,TTAGTCACGTGCCGGT,0.126 kJ/mol
25,GATTGCACGTGCGGAG,0.0837 kJ/mol

row,Sequence,relative binding free energy
1,TCTTACACGTGTGTTG,1.13 kJ/mol
2,TTGTTCACGTGAGCTG,1.63 kJ/mol
3,GTTGGCACGTGTGTAA,-0.126 kJ/mol
4,TCGATCACGTGTTAGT,0.544 kJ/mol
5,ATCTTCACGTGTGGGA,0.962 kJ/mol
6,GCAGGCACGTGGTAGG,-0.544 kJ/mol
7,TGTGGCACGTGGAACA,0.0837 kJ/mol
8,GGAGTCACGTGGGGTC,0.544 kJ/mol
9,AGTTGCACGTGTGGAC,0.544 kJ/mol
10,GTTTTCACGTGCGGCA,1.46 kJ/mol
11,CTAATCACGTGGTATT,0.0418 kJ/mol
12,AAAGGCACGTGATTTG,0.46 kJ/mol
13,TATGTCACGTGATGTA,0.502 kJ/mol
14,TATGCCACGTGTGGAG,-0.167 kJ/mol
15,GTGGTCACGTGAGACG,1.46 kJ/mol
16,GGAAGCACGTGACGGT,0.251 kJ/mol
17,AGGAGCACGTGATGGC,0.377 kJ/mol
18,AGGGTCACGTGGCGCT,-0.0418 kJ/mol
19,GTGGTCACGTGTAGGG,0.795 kJ/mol
20,ATACGCACGTGTTTTT,-0.628 kJ/mol
21,GGAGTCACGTGTTATC,0.962 kJ/mol
22,AGTACCACGTGAATGT,0.962 kJ/mol
23,AGAGCCACGTGGTTGT,-0.46 kJ/mol
24,GGGGTCACGTGTATTA,1.3 kJ/mol
25,TAAGTCACGTGAGGGA,1.46 kJ/mol

row,Sequence,relative binding free energy
1,TTTCGCACGTGTGAAT,0.167 kJ/mol
2,CGTAGCACGTGTGTGA,0.0837 kJ/mol
3,GCTAGCACGTGGATGT,-0.167 kJ/mol
4,TGATGCACGTGAAATG,0.92 kJ/mol
5,TGTAACACGTGCGTGG,-0.795 kJ/mol
6,TAGGCCACGTGGAGAT,0.293 kJ/mol
7,GGTCGCACGTGGTAGG,-0.502 kJ/mol
8,ACTATCACGTGGGGGA,0.126 kJ/mol
9,ACTATCACGTGTATTT,0.377 kJ/mol
10,GGGGACACGTGTCGGT,0.0418 kJ/mol
11,AATATCACGTGTGTGA,0.628 kJ/mol
12,GGTGGCACGTGCGTAA,-0.418 kJ/mol
13,TGGTCCACGTGGGAGG,-0.377 kJ/mol
14,GGAGACACGTGTCGGG,0 kJ/mol
15,AGTTGCACGTGGGTAG,-0.586 kJ/mol
16,GTGTCCACGTGGATTG,0.418 kJ/mol
17,AGTGGCACGTGTGGAG,-0.0837 kJ/mol
18,TGGTACACGTGAGATT,1.34 kJ/mol
19,AGGGGCACGTGCGGCT,-1.21 kJ/mol
20,ATGGGCACGTGTTCGG,-0.0837 kJ/mol
21,CAGGGCACGTGGAGTA,-0.628 kJ/mol
22,GTATGCACGTGAAGAG,1.38 kJ/mol
23,GGTTGCACGTGATAGT,0.209 kJ/mol
24,CTTGGCACGTGGAGTT,-0.293 kJ/mol
25,TGGTTCACGTGTATTT,1 kJ/mol

row,Sequence,relative binding free energy
1,AAATTCACGTGAAGAG,1.59 kJ/mol
2,GTTTGCACGTGTCTGA,-0.0837 kJ/mol
3,GGTTACACGTGTAAGG,1.05 kJ/mol
4,TGGTGCACGTGACTGA,0.46 kJ/mol
5,TCGGACACGTGTATGG,0.293 kJ/mol
6,TGTTGCACGTGTCGGA,0.46 kJ/mol
7,TTTGGCACGTGGATTT,-0.251 kJ/mol
8,GAGATCACGTGGTTGT,1.21 kJ/mol
9,GGGATCACGTGATAGT,1.26 kJ/mol
10,CGGGGCACGTGTTGGT,-0.251 kJ/mol
11,CATGTCACGTGTTTTG,0.669 kJ/mol
12,TTTGTCACGTGGCTGT,0 kJ/mol
13,GAGTGCACGTGGGCTG,-1.21 kJ/mol
14,AATGCCACGTGTGTGG,-0.251 kJ/mol
15,AAGGTCACGTGCGGGT,0.209 kJ/mol
16,TGGGTCACGTGATATC,1.21 kJ/mol
17,AAAGACACGTGAGGTG,0.879 kJ/mol
18,TGCGGCACGTGAGTAT,0.544 kJ/mol
19,TATGTCACGTGAAGGC,1.17 kJ/mol
20,CGGAACACGTGGGTTA,-0.418 kJ/mol
21,GTATACACGTGGTTAA,0.167 kJ/mol
22,TCTGTCACGTGAAGGG,1.13 kJ/mol
23,GTAGCCACGTGGGGGA,-0.795 kJ/mol
24,TTTGGCACGTGAGTTA,0.711 kJ/mol
25,TCTAGCACGTGATTTT,0.669 kJ/mol

row,Sequence,relative binding free energy
1,GGAAACACGTGGTAGT,0.0837 kJ/mol
2,GGAGCCACGTGTGGTG,-0.209 kJ/mol
3,AGTGGCACGTGTAACG,-0.251 kJ/mol
4,GTCAGCACGTGGATTG,0 kJ/mol
5,TGGGGCACGTGAACTG,0.167 kJ/mol
6,CTATGCACGTGGGTAG,-0.92 kJ/mol
7,AGGTTCACGTGGCGAG,0.711 kJ/mol
8,TTTATCACGTGGGCCT,0.502 kJ/mol
9,GTCGGCACGTGCTGGT,-0.0418 kJ/mol
10,TGGGCCACGTGGTCGG,-0.293 kJ/mol
11,ACAGGCACGTGGTGAG,-0.628 kJ/mol
12,GTTCTCACGTGTGCGG,1.34 kJ/mol
13,GCTAGCACGTGTAGGC,0.335 kJ/mol
14,AGAGTCACGTGGGGGA,-0.209 kJ/mol
15,AGGGTCACGTGCTTTT,-0.502 kJ/mol
16,ACTTGCACGTGTATGG,-0.377 kJ/mol
17,TTAAACACGTGAGATA,1.21 kJ/mol
18,TTATGCACGTGGATAG,-0.126 kJ/mol
19,GCGTCCACGTGGGGTT,-0.293 kJ/mol
20,AATTACACGTGTTTAG,0.795 kJ/mol
21,TGGTCCACGTGGTAGT,-0.126 kJ/mol
